The other results are listed elsewhere or left out. The full chains were built here from the parent and the listed change. Inactive controls read about 0.05.
B1: TEV protease; numbered along this chain (parent)
chain: MGESLFKGPRDYNPISSSICHLTNESDGHTTSLYGIGFGPFIITNKHLFRRNNGTLVVQSLHGVFKVKDTTTLQQHLVDGRDMIIIRMPKDFPPFPQKLKFREPQREERICLVTTNFQTKSMSSMVSDTSCTFPSGDGIFWKHWIQTKDGQCGSPLVSTRDGFIVGIHSASNFTNTNNYFTSVPKNFMELLTNQEAQQWVSGWRLNADSVLWGGHKVFMVKPEEPFQPVKEATQL

Variants of: B1
Experiment: raw area under fraction-flipped curve 0-4 h after induction (AUC4h, not background-subtracted), DNA-recorder readout of cleavage of the substrate (dimensionless); higher = more cleavage of the substrate by the protease variant
Details: temperature: 34 °C; time window: 0-4 h after rhamnose induction
Procedure: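 In vivo DNA recorder in E. coli TOP10(DE3) ΔrhaA at 34 °C. Each TEVp single-site mutant (parent TEVp 0) is paired with a single-site variant of the 7-mer TEVs (canonical ENLYFQ|S). The substrate sits between flexible linkers in a Bxb1-sfGFP-TEVs-SsrA fusion, so cleavage stabilises Bxb1 and speeds flipping of a recombination array, read by NGS. The value is the raw area under the fraction-flipped curve over 0-4 h after rhamnose induction (AUC4h), with ≥20 reads per time point. It is not background-subtracted; inactive controls average about 0.047.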
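Also: Bxb1 expression induced with 0.2% (w/v) L-rhamnose at OD600 near 0.5, cultures sampled hourly, flipped fraction per protease–substrate barcode pair counted by paired-end Illumina sequencing.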

Variant | area with substrate ENLYFCS | area with substrate ENLYFES | area with substrate ENLYFGS | area with substrate ENLYFIS | area with substrate ENLYFLS | area with substrate ENLYFPS | area with substrate ENLYFVS | area with substrate ENLYFWS | area with substrate ENLYFYS | area with substrate ENLYFAS | area with substrate ENLYFDS | area with substrate ENLYFFS | area with substrate ENLYFHS | area with substrate ENLYFKS | area with substrate ENLYFNS | area with substrate ENLYFRS | area with substrate ENLYFSS | area with substrate ENLYFTS | area with substrate ENLYFMS
M88A | 0.0634 | 0.0582 | 0.0607 | 0.0541 | 0.0759 | 0.0536 | 0.0494 | 0.0294 | 0.0892 |  |  |  |  |  |  |  |  |  | 
Q234W | 0.0585 | 0.0626 | 0.0613 | 0.048 | 0.034 | 0.0593 | 0.0488 |  | 0.0641 | 0.0634 | 0.0638 | 0.0618 | 0.0478 | 0.0551 | 0.06 | 0.068 | 0.0657 | 0.0413 | 
N53S | 0.0667 | 0.0624 | 0.0372 | 0.0574 |  | 0.0568 | 0.0468 |  |  |  | 0.0534 | 0.05 | 0.0684 |  | 0.0517 | 0.0565 | 0.0622 | 0.0653 | 0.0641
N53C | 0.06 | 0.0759 |  | 0.0565 |  | 0.0586 |  | 0.0745 |  |  |  | 0.0666 |  | 0.0684 | 0.0518 |  | 0.0592 | 0.0623 | 0.0424
R106A | 0.0605 | 0.0729 | 0.0689 | 0.0657 | 0.0575 | 0.0351 | 0.0629 |  |  |  | 0.0432 | 0.0625 | 0.0869 | 0.0655 |  | 0.0633 | 0.0539 | 0.0788 | 
S124P | 0.0644 | 0.0653 | 0.0615 | 0.066 | 0.0544 | 0.0544 |  | 0.0569 | 0.0595 |  | 0.0598 | 0.0772 | 0.0615 | 0.0825 | 0.0614 | 0.0606 | 0.0622 | 0.0545 | 0.0621
R50K | 0.0722 | 0.0708 |  | 0.0527 | 0.0754 | 0.0655 |  | 0.058 |  |  |  | 0.0539 | 0.0679 | 0.0617 | 0.0599 | 0.0614 | 0.0643 | 0.0541 | 0.0586
H47C | 0.0558 | 0.0691 | 0.0581 | 0.0528 | 0.0691 | 0.053 |  |  | 0.0473 |  |  | 0.0718 |  | 0.0606 | 0.0624 |  | 0.0541 | 0.049 | 0.0542
I19V | 0.0554 |  | 0.064 | 0.0501 |  | 0.0601 | 0.0436 | 0.0537 | 0.0596 |  | 0.0446 | 0.0591 |  | 0.0729 | 0.0734 | 0.073 | 0.0642 | 0.0526 | 0.0612
I19K | 0.0565 | 0.0571 |  | 0.0496 |  | 0.0464 |  |  | 0.0443 |  |  | 0.0642 | 0.033 |  | 0.0606 | 0.0448 | 0.047 | 0.0418 | 0.0507
Q146M | 0.0369 | 0.0698 |  | 0.0568 | 0.0611 | 0.0534 | 0.0434 | 0.0548 |  |  | 0.0672 | 0.08 |  | 0.0518 | 0.0731 | 0.0531 | 0.0656 | 0.0648 | 0.0754
L61H | 0.0251 | 0.0716 | 0.0662 | 0.06 | 0.0611 | 0.0642 | 0.0446 | 0.0533 | 0.0594 |  | 0.0468 | 0.0616 |  | 0.0498 | 0.0651 |  | 0.0671 | 0.0598 | 0.0618
E231C | 0.0556 | 0.0683 | 0.0873 | 0.0573 |  | 0.0539 | 0.0618 | 0.053 |  | 0.0614 |  | 0.0635 |  | 0.058 |  | 0.055 |  | 0.0768 | 0.068

Reference: the supplement of paper PMC12217912
